Results as given in the supplement of paper PMC3334620.
In all, about 33,000 sequences were measured (“E-score (-0.5 to 0.5)”: median about -0.056, highest 2% from about 0.38 on). Some of the results follow.

molecular target: Stb4 (UniProt P50104); assay: PBM E-score (8-mer binding enrichment) (E-score (-0.5 to 0.5)); higher = stronger / more preferred TF binding; most listed sequences are background and not binding sites; settings: protein concentration: 200 nM; construct: GST-DNA-binding domain
Outline: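 Universal all-10-mer Agilent arrays, double-stranded by primer extension on fresh or once-stripped slides, were probed with about 100-200 nM GST-tagged yeast transcription factors made by PURExpress. Fluorescent anti-GST detected bound protein, and masliner normalised the scans. E-scores from the Universal PBM Analysis Suite were given to each ungapped eight-base word pooled with its reverse complement.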

Sequence | PBM E-score
AGGCAGGA | -0.188
GTGCCGAA | 0.441
AGTTGTAC | 0.0353
CGAGAGTC | 0.0872
AAGAACAG | -0.164
GATACCAA | 0.063
CTTGACGA | -0.0253
CATCGCGC | -0.0475
GCCTACGC | -0.306
CTCGCAAC | -0.0858
AATAATAG | -0.137
CAAAAAAG | -0.188
ACGTGGTA | -0.112
AAAGTATG | -0.018
GATACTCC | 0.0462
AGCGAATC | -0.0302
AAACAGTC | -0.354
CAGTATAA | 0.126
GCCTAGAC | -0.139
CGAGTCGA | 0.0095
TCGTTTCA | -0.0734
CGGGAGAG | 0.25
ACATTGCC | 0.0763
CTTGCTAC | -0.0158
ACTGGATA | 0.146
AACCCCGT | 0.0263

Sequence | PBM E-score
ACACTTAA | -0.0841
ATGTAGGG | -0.104
CCCACGCA | -0.129
ATTAATCC | 0.192
TCTGCTAA | -0.0533
AGTTAATG | -0.199
ACGTGGTC | -0.156
CTTAAGGA | -0.143
ACGTGGCG | -0.165
ATGCTCTC | -0.0992
GTTCGAAC | -0.0708
AGGTGCGG | 0.154
TATATAGA | -0.157
GGTGCACA | -0.108
ATCGAAAG | -0.122
AAGACAGA | 0.0492
AAACATTT | -0.00224
AGGAACCC | 0.0598
ACCGCACT | 0.055
CCTATTTA | -0.0265
CAACAGGA | -0.227
AATAACAG | 0.00683
AGTCGAAG | -0.208
ATACCCGC | 0.328
CTACGGGA | 0.209
ACCTCGCT | -0.13

Sequence | PBM E-score
ACAGACGT | -0.00552
GCCACCCC | -0.0454
CACATATA | -0.145
TGAAGTCA | -0.0018
CATTGATA | 0.117
CACGACAG | -0.238
GCCTATTA | -0.154
CCCTGGAC | -0.151
AATTCTCC | 0.224
CATGAACA | 0.0379
CGTTAGAC | -0.0185
ATTCGCAC | -0.00483
CAAACTCG | 0.125
AGGCCGCG | -0.0789
AGTATGAG | -0.0426
CAAATGAG | -0.152
GAACGGAA | 0.346
ACCGGAAT | 0.294
GATAGAGA | -0.0842
AATATTGG | -0.124
CGGATGCC | 0.337
AGCCCGTC | -0.0989
AAAACGAA | -0.0592
AATGGTTG | 0.02
AGTGTGTC | -0.0648
GTCCGAAA | 0.337

Sequence | PBM E-score
ACACCCGT | 0.229
GGGCTATA | -0.0221
CGCAAGGA | -0.131
ACCACTAA | -0.0511
AAGGTGGT | -0.0395
ACGACAAT | -0.0306
ATTAGAGA | -0.154
CGAACAAG | 0.233
CCAGTCAG | -0.0968
GCATGATA | -0.0594
TGTGCACA | -0.0333
GCAGACGA | -0.153
CCGTTAGA | 0.17
CAACGTAG | -0.195
ATACGACG | 0.0382
CGCTCTTA | 0.00284
CTGACCCA | -0.233
GCGGCACC | 0.179
GCAAGTTA | 0.0966
GCTGCGAC | -0.255
CCCGTTGC | -0.106
CGCGGAGC | 0.163
CATAGTGC | 0.0399
GGTTTGAA | 0.0487
AAGTTAGC | 0.158
ATATTCCG | 0.393

Sequence | PBM E-score
GCAGGCCA | -0.118
AGGGTCTA | -0.0483
GAATATGA | -0.0308
GAAAGAGC | -0.0816
CCCAAACG | -0.227
CCCACGGC | -0.00781
ATGCACGG | 0.109
ACGGGGTC | 0.134
ATTCAGCC | 0.0302
ATCCCACA | -0.128
ACGGCGCA | 0.109
GGTGTAAC | 0.139
CGAAAGAC | 0.127
ACATGAGG | -0.172
CATTAGTC | 0.0554
ACCGTTGG | -0.171
CTTTTACA | 0.0319
AGTGCATC | -0.121
ACAACCCA | -0.073
AAGGCGGA | 0.169
GTAGTTGA | -0.0197
CGTCGACG | 0.129
AAGGGAGG | -0.0163
